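Test compounds were applied to cells in 96-well plates for 48 hours at 5 doses. GI50 is the concentration that inhibits growth by half.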 The source made the active and inactive calls. No stated cut-off is given here; in the data, active = GI50 up to about 1.1 µM and inactive = higher. Square brackets hold non-standard residues; d marks the D form. Peptide text beside a SMILES is read from it. Phe(4-NO2) = N[CH](Cc1ccc([N+](=O)[O-])cc1)C(=O)O
What follows are compounds tested on NCI-H322M (assay: inhibition of tumour cell growth, NCI panel, 48 h).

Structure (SMILES)	GI50
C=CCC1C(=O)CC2(C)C(CC=C)C(=O)CC12C (centres undefined)	inactive: > 100 µM
COc1ccc(C(Cc2ccccc2)C2NC(=S)NC2=O)cc1 (centres undefined)	inactive: > 25 µM
CCOC(=O)[C@@H]1C[C@H]1c1ccc(O)c(O)c1	inactive: 79.1 µM
C[C@@H](c1ccccc1)n1c(N)c(C#N)c2ccc([N+](=O)[O-])cc2c1=O	inactive: 18.7 µM
Cc1cc(C)c(-c2no/c(=N\S(=O)(=O)c3ccc(Cl)cc3)o2)c(C)c1	inactive: > 100 µM
C=C1[C@H]2O[C@H]2[C@@H](OC(C)=O)[C@@]2(C)[C@@H](OC(C)=O)C[C@@H](OC(=O)CCC)[C@@](C)(O)[C@@H]2[C@@H](OC(C)=O)[C@]2(O)[C@@H](C)C(=O)O[C@H]2[C@H]1Cl	inactive: > 100 µM
S=C(S)NCC1CCC(CNC(=S)S)CC1 (centres undefined)	inactive: > 100 µM
O=c1[nH]c2c(Nc3c4ccccc4nc4ccccc34)c([N+](=O)[O-])c(Nc3c4ccccc4nc4ccccc34)c([N+](=O)[O-])c2[nH]1	active: 0.942 µM
CN(C)CCCn1c2ccccc2c2cnccc21	inactive: 39 µM
CC(=O)OC/C=C(\C)CCC(Br)C(C)(C)Br (centres undefined)	inactive: > 10 µM
Clc1ccccc1/C=C/c1cscn1	inactive: > 100 µM
O=C(c1ccc(Cl)cc1)N1N=C(c2ccc(Cl)cc2)CC1(O)c1cc(F)c(Cl)cc1Cl (centres undefined)	inactive: 17.8 µM
Cc1cc2c(c(/C=N/c3ccc(N(C)C)cc3)c1)OC1(C=C2)Oc2ccccc2C(=O)N1C (centres undefined)	inactive: 14.9 µM
O=c1[nH]c2ccc([N+](=O)[O-])c(Cl)c2c2ccccc12	inactive: 7.98 µM
CCCCCCCCCCCC(=O)CC(=O)c1c(O)cccc1O	inactive: 20.2 µM
COc1cc(O)ccc1C(=S)SC	inactive: 49.4 µM
Cc1ccc2c(c1C)-c1c(ccc(C)c1C)C(=O)C2=O	inactive: 1.52 µM
COC(=O)CSc1cc(Cl)c(C)cc1S(=O)(=O)Nc1n[nH]c(N)n1	inactive: > 10 µM
O=C1NC(Nc2ccccc2)=N/C1=C\c1c(Cl)cccc1Cl	inactive: 24.5 µM
CC1=NN(c2nc(N)nc(-c3sccc3N)n2)C(C)(C)C1	inactive: > 100 µM
CC1=NNC(=O)C1C1C=C(c2c[nH]c3ccccc23)OC1=O (centres undefined)	inactive: > 100 µM
CCC1OC(=O)C(C)C(OC2CC(C)(O)C(O)C(C)O2)C(C)C(O)C(C)(O)CC(C)C(=O)C(C)C(O)C1C (centres undefined)	inactive: > 300 µM
O=C(Nc1nc2ncn(CCOC(=O)c3ccccc3)c2c(=S)[nH]1)c1ccccc1	inactive: > 100 µM
CN(C)C(=Nc1nc(N(C)C)s[s+]1)N(C)C	inactive: > 100 µM

Structure (SMILES)	GI50
Cc1ccc(Cc2nn(C)c(=O)n2N)cc1	inactive: > 100 µM
O=C(O)c1cc2c(cc1S(=O)(=O)O)C1C(C3C2C2(Cl)C(Cl)=C(Cl)C3(Cl)C2(Cl)Cl)C2(Cl)C(Cl)=C(Cl)C1(Cl)C2(Cl)Cl (centres undefined)	inactive: 23.6 µM
COc1ccc2c(CCNC(=O)/C=C/c3ccccc3)c(C(C)=O)[nH]c2c1[N+](=O)[O-]	inactive: 33.9 µM
CSc1c(C(=O)Nc2ccc(Cl)cc2)c(N)n(N)c(=O)c1C#N	inactive: 25.1 µM
N#CC(C#N)=C1/C(=C/C=C/C=C/C=C/c2ccc(N3CCCCC3)s2)S(=O)(=O)c2ccccc21	inactive: > 100 µM
CN(C)C/C=C(/c1ccc(Br)cc1)c1cccnc1	inactive: > 100 µM
c1ccc(SCCP(CCP(c2ccccc2)c2ccccc2)c2ccccc2)cc1 (centres undefined)	inactive: 24.9 µM
CC1=CC2(O)OC3(CC2=C(C)C)C(C)CCC13 (centres undefined)	inactive: > 100 µM
COc1cccc(-c2cc(O)c3cc(OC)c(OC)cc3n2)c1	inactive: 31.1 µM
COc1cc2c3cc1Oc1c(OC)c(OC)cc4c1C(Cc1ccc(O)c(c1)Oc1ccc(cc1)CC3N(C)CC2)CN(C)C4 (centres undefined)	inactive: 17.3 µM
COc1ccc(OC)c2c1C(=O)C(O)=C(Cl)C2=O	inactive: > 100 µM
COC1=CC(=O)C2C(C1=O)[C@@H]1c3ccccc3C[C@H]21 (some centres undefined)	inactive: > 100 µM
COC(=N)c1csc(C2OC(CO)C(O)C2O)n1 (centres undefined)	inactive: > 100 µM
O=C(Cc1nc2ccccc2o1)C(=O)Nc1cccc(Cl)c1	inactive: > 100 µM
CN(C)CCOc1cc2c(c3ccccc13)-c1ccccc1C2O (centres undefined)	inactive: 12.9 µM
Nc1ncnc2c1ncn2C1C(O)C=C(CO)C1O (centres undefined)	inactive: > 625 µM
CCNc1cc2oc(=O)cc(C(F)(F)F)c2cc1C	inactive: > 100 µM
C=CC/N=C(\S)Nc1sc2c(c1C(=O)OCC)CC(C)CC2 (centres undefined)	inactive: 26.7 µM
c1ccc2c3c(c(N4CCNCC4)nc2c1)CCCC3	inactive: 16.9 µM
N#Cc1cccc(N2C(=O)C3C4C=CC(C3C2=O)C2C(=O)N(c3cccc(C#N)c3)C(=O)C42)c1 (centres undefined)	inactive: > 63.1 µM
Cc1ccc([N+](=O)[O-])cc1S(=O)(=O)Nc1ccc(C2=NN(S(=O)(=O)c3cc([N+](=O)[O-])ccc3C)C(c3ccccc3)C2)cc1 (centres undefined)	inactive: 31.7 µM
CCCCN(CCCC)C(=O)C(=O)C(C(=O)c1ccc(OC)cc1)c1ccc(OC)cc1 (centres undefined)	inactive: > 100 µM
COc1cc(C(=O)C2C(=O)c3ccccc3C2C2(O)c3ccccc3CC2C(O)c2cc(OC)c(OC)c(OC)c2)cc(OC)c1OC (centres undefined)	inactive: > 100 µM
COC(=O)OC[C@H]1O[C@@H](n2cc(C)c(=O)[nH]c2=O)CC1OC(=O)OC (some centres undefined)	inactive: > 100 µM

Structure (SMILES)	GI50
NC1(CCCCCCCCCCC(=O)O)CNCCNCCNCCNC1	inactive: 39.6 µM
O=C1C(=O)N(c2cccc(C(F)(F)F)c2)C(=S)N1c1ccccc1	inactive: 42.7 µM
Cc1cccc2c1C(=O)C1(Cc3ccccc3C1=O)C2 (centres undefined)	inactive: 87.1 µM
CCN1c2ccccc2-c2c3c1cc(C)cc3c1ccccc1[n+]2CC	inactive: 2.15 µM
COc1cc2cc(OC)c3cc4c(cc3c2c(OC)c1OC)OCO4	inactive: 58.1 µM
COc1cc(O)cc(/C=C/c2ccc(O)cc2)c1	inactive: 31 µM
C=CC12CN(C)C3C4COC(CC41)C1(C(=O)Nc4ccccc41)C32 (centres undefined)	inactive: 171 µM
COc1ccc(-n2c3c(c4c(CN(C)C)c(O)ccc42)C(=O)c2ccccc2C3=O)cc1	inactive: 18.4 µM
O=CN1CCC23CC(O)CCC2C1Cc1cc(Oc2nnnn2-c2ccccc2)cc(O)c13 (centres undefined)	inactive: > 100 µM
Cc1ccc(/N=N/c2ccc(N)cc2C)c(S(N)(=O)=O)c1	inactive: > 100 µM
COC(=O)c1cnn2c1ccc1ccccc12	inactive: > 100 µM
O=C1CCCC1NC(=O)C(F)(F)F (centres undefined)	inactive: > 100 µM
CO/C=C(/C(=O)OC)[C@@H]1C[C@@H]1c1ccc2ccccc2c1	inactive: 55 µM
O=C(Nc1nc2ncn(CCO)c2c(=S)[nH]1)c1ccccc1	inactive: > 100 µM
CC(NC(=O)C(Cc1ccc([N+](=O)[O-])cc1)NC(=O)C(N)CCCCN)C(=O)NC(Cc1ccc([N+](=O)[O-])cc1)C(N)=O (centres undefined) (H-K[Phe(4-NO2)]A[Phe(4-NO2)]-NH2; configuration not given here)	inactive: 26 µM
COC(=O)c1nc(N)nc(O)c1-c1ccc(Cl)cc1	inactive: > 100 µM
c1cc2c(cc1NC1=NCCO1)CCCC2	inactive: 4.25 µM
COC(=O)C(=O)C(C(=O)C(=O)Nc1ccc(Cl)cc1C)c1nc2ccc(C(=O)c3ccccc3)cc2nc1O (centres undefined)	inactive: > 100 µM
O=C1c2cc(CCl)sc2C(=O)c2ccsc21	inactive: 1.24 µM
O=[N+]([O-])c1cccc(-c2ncc3c(n2)-c2ccccc2C3)c1	inactive: > 100 µM
Cc1ccc(Nc2cc(=O)[nH]c(=S)[nH]2)cc1	inactive: > 100 µM
COc1ccc(C(=C2C(=O)OC(=O)C2=C(C)C)c2ccc(OC)cc2)cc1	inactive: > 100 µM
O=S1(=O)N=C(SCc2c[nH]c3ccccc23)N(c2ccccc2)c2ccncc21	inactive: > 100 µM
CCOC(=O)C(N)CSC(=O)NC (centres undefined)	inactive: 282 µM

Structure (SMILES)	GI50
NC(=S)N/N=C(/CCN1CCCC1)CC(C1=C(O)C2=CCCCC2OC1=O)c1ccccc1 (centres undefined)	inactive: > 100 µM
COC(=O)c1cc(C)ccc1C1CN=NC12Cc1ccc(C)cc1C2=O (centres undefined)	inactive: > 100 µM
CCOC(=O)NC(=S)NC(C)c1ccccc1 (centres undefined)	inactive: > 100 µM
CC(=O)Nc1ncc2c(n1)-c1ccccc1OC2	inactive: > 100 µM
S=C(c1c[nH]c2ccccc12)N1CCCCC1	inactive: > 100 µM
Cn1c(=O)c(C2c3ccccc3Oc3c2c(=O)n(C)c2ccccc32)c(O)c2ccccc21 (centres undefined)	inactive: 64.6 µM
COc1cc([C@@H]2c3cc4c(cc3[C@@H](NC(=O)c3ccc(OC(C)=O)cc3)C3COC(=O)[C@@H]32)OCO4)cc(OC)c1O (some centres undefined)	inactive: 18.3 µM
COc1ccc(/C=N/NC(=O)c2ccccc2Nc2ccccc2C(=O)N/N=C/c2ccc(OC)cc2)cc1	inactive: > 100 µM
O=C(/C=C/c1ccccc1)CCN1CCCCC1	inactive: > 100 µM
O=[N+]([O-])c1cc(Cl)c(Cl)cc1[N+](=O)[O-]	inactive: 15.6 µM
Cc1ccc(/N=N/c2c(C)c(C#N)c(=S)n(C3OC(CO)C(O)C(O)C3O)c2C)cc1 (centres undefined)	inactive: 24.1 µM
C/C(=N\NC(=S)NCCCCNC(=S)N/N=C(\C)c1ccccn1)c1ccccc1	active: 1.08 µM
Cc1ccc2oc(=O)cc(CC(=O)O)c2c1	inactive: > 100 µM
Cc1ccc(S(=O)(=O)NC(=O)Nc2nc[nH]n2)cc1	inactive: > 100 µM
CC1C2CC(CC23OCC(CCl)O3)C1(C)C (centres undefined)	inactive: > 100 µM
Cc1ccc(C2CC(c3ccco3)=NN2c2ccccc2)o1 (centres undefined)	inactive: > 100 µM
BrCc1ccc2ccc3ccc(CBr)nc3c2n1	inactive: 9.79 µM
CN(C)Nc1cc(=O)[nH]c(=O)[nH]1	inactive: > 100 µM
COc1ccc(C(=O)O)c2c(=O)c3ccccc3[nH]c12	inactive: > 100 µM
C=C1C(=O)O[C@@H]2C[C@@]3(C)CCC[C@H](C)C3=C[C@H]12 [HELENINE]	inactive: 15.8 µM
O=C(O)CSc1nnc(COc2ccccc2)n1-c1ccccc1	inactive: > 100 µM
COC(=O)/C=C\C(C#N)(C#N)/N=C/c1ccccc1	inactive: 17.1 µM

— ChEMBL document CHEMBL1201862, “PubChem BioAssay data set” (2004)
